# In all, about 52,000 compounds went through this assay and about 1,700 (3.3%) were called active. Rule as the data show it: active = survival mostly below about 52% (no sharp cut-off); inactive = mostly above about 56%. The list shows a part of the results.
# Test system: Wild type
# Test: S. aureus survival, RN4220 and DeltatarO strains – OD600, teichoic acid synthesis inhibitors, primary screen (AID 463173)
# Conditions: S. aureus RN4220 wild type/DeltatarO growth, OD600, 18 h, stronger effect = lower value, screened at 18.75 µg/mL (by protocol)
row,Compound,survival
1,Cc1ccc2c(c1)N(C(=O)N1CCC(C(=O)NC3CCCCCC3)CC1)CC(C)O2 (centres undefined),inactive: 85%
2,COc1ccc(/C=C/C(=O)Nc2sc3c(c2C(N)=O)CCC(C)C3)cc1OC (centres undefined),inactive: 64%
3,COc1ccc2nc(SCC(=O)NC3CCCCC3C)c(C#N)cc2c1 (centres undefined),inactive: 104%
4,Cc1ccc(-n2ncc3c(N4CCN(C)CC4)ncnc32)cc1Cl,inactive: 72%
5,CCOc1ccc(NC(=O)CCS(=O)(=O)c2cccc3nonc23)cc1,inactive: 80%
6,CNC(=O)c1ccc(Nc2nnc(-c3ccc(C)c(S(=O)(=O)N4CCCCC4)c3)c3ccccc23)cc1,inactive: 81%
7,CCOC(=O)c1c(NC(=O)c2cc(C)on2)sc(C)c1C,inactive: 71%
8,Cc1cc(C)cc(OCc2ccc(C(=O)Nc3ccccc3F)o2)c1,inactive: 72%
9,COc1ccc(CNC(=O)CCC(=O)N2CC3CCCN3c3ccccc32)c(OC)c1 (centres undefined),inactive: 73%
10,CCc1cccc(NC(=O)CSc2ncccc2C(=O)Oc2ccccc2Cl)c1,inactive: 80%
11,CNC(=O)c1c[nH]c2ccc(S(=O)(=O)Nc3cccc(Cl)c3C)cc2c1=O,inactive: 82%
12,NC(=O)c1cc2ccc(O)cc2oc1=O,inactive: 104%
13,Cc1cc(C)c2c(=O)cc(C(=O)Nc3sc4c(c3C(=O)NCc3cccnc3)CCCC4)oc2c1,inactive: 85%
14,C=CCn1c(=S)[nH]c2ccccc2c1=O,inactive: 116%
15,CC(C)n1c(SCC(=O)Nc2ccc(F)cc2)nc2c(oc3ccccc32)c1=O,inactive: 78%
16,CCOc1ccccc1CNC(=O)c1ccc2c(c1)sc1nc(-c3cccc(OC)c3)cn12,inactive: 79%
17,CC(C)C12CN3CC(C(C)C)(CN(C1)C3c1ccc(OCc3ccccc3)cc1)C2=O (centres undefined),inactive: 85%
18,CCC(Sc1nc2nccnc2c(=O)n1Cc1ccc(OC)cc1)C(=O)NC1CCCCC1 (centres undefined),inactive: 110%
19,CCOc1ccc(-n2c(SCC(=O)Nc3ccc(F)cc3)nc3c([nH]c4ccccc43)c2=O)cc1,inactive: 88%
20,COC(=O)c1cc(S(=O)(=O)NCC2CCN(Cc3ccc(C)cc3)CC2)c[nH]1,inactive: 133%

row,Compound,survival
1,CC(=O)c1cccc(NC(=O)c2ccc(-n3c(C)nnc3C)cc2)c1,inactive: 67%
2,CCCC(c1nnnn1CC1CCCO1)N(Cc1cc2cc(C)cc(C)c2[nH]c1=O)C1CCCC1 (centres undefined),inactive: 107%
3,O=C1OC(C(=O)Nc2ccc(Cl)c(C(F)(F)F)c2)Cc2ccccc21 (centres undefined),inactive: 84%
4,COc1ccc(-c2noc(-c3ccc(N4CCCCC4C)c([N+](=O)[O-])c3)n2)cc1OC (centres undefined),inactive: 124%
5,COc1ccccc1CNC(=O)c1ccc(N2Cc3cccc(OC)c3Oc3ncccc32)s1,inactive: 71%
6,CC(C)(C)OC(=O)N1CCC(c2nnc(SCc3ccccc3)o2)CC1,inactive: 83%
7,Cc1cc(NC(=O)COc2ccccc2)cc(-c2nc3ccccc3o2)c1O,inactive: 87%
8,CCCN1C(=O)C(Cc2nc3ccccc3c(=O)n2-c2cccc(C)c2)c2ccccc21 (centres undefined),inactive: 40%
9,Cn1ncc(C(=O)N2CCN(c3ccc(F)cc3)CC2)c1C1CCN(C(=O)OC(C)(C)C)CC1,inactive: 66%
10,O=C(Cc1c(F)cccc1Cl)NCCCn1ccnc1,inactive: 109%
11,CCCn1c(-c2cccc(Br)c2)nc2ccccc21,active: 3%
12,Cc1cc(C)cc(NC(=O)C2CCCN2S(=O)(=O)c2cccc3nsnc23)c1 (centres undefined),inactive: 71%
13,CC(=O)Nc1cc(-c2nc3ccccc3s2)ccc1C,inactive: 91%
14,Cc1ccc(C2=CC(c3c(F)cccc3Cl)n3ncnc3N2)cc1C (centres undefined),inactive: 57%
15,O=C(CSc1nnc2[nH]c(=O)cc(-c3ccccc3)n12)Nc1ccc(F)cc1F,inactive: 94%
16,CCn1c(-c2ccc(S(=O)(=O)N3CCOCC3)cc2)csc1=Nc1ccc(C)c(Cl)c1,inactive: 71%
17,CCOC(=O)c1ccc(CN(Cc2ccccc2C)S(=O)(=O)c2ccc(C(C)(C)C)cc2)cc1,inactive: 84%
18,COc1cccc(C2C(C(=O)Nc3ccccc3)=C(C)Nc3nc(-c4ccccc4)nn32)c1OC (centres undefined),inactive: 107%
19,C=CCNCc1cc2cc(C)cc(C)c2[nH]c1=O,inactive: 101%
20,Cc1ccccc1NC(=O)C(C)Sc1nnc(-c2ccccc2C)o1 (centres undefined),inactive: 100%

row,Compound,survival
1,Cc1ccc(C(=O)n2nc(C)c(S(=O)(=O)N3CCCCCC3)c2C)cc1,inactive: 81%
2,COc1ccc(C)cc1NC(=O)c1ccc2c(c1)CCN2S(=O)(=O)c1ccc(Cl)cc1,inactive: 87%
3,Cc1ccc(C)c(S(=O)(=O)n2nnc3ccccc32)c1,inactive: 104%
4,O=C(Nc1ncn[nH]1)C(F)(F)C(F)F,inactive: 108%
5,Cc1ccc(C)c(CN2CCC(CNC(=O)c3cc4ccc5cccnc5c4[nH]3)CC2)c1,inactive: 84%
6,COc1ccc(CNc2nc3c(c(=O)n(C)c(=O)n3C)n2Cc2ccccc2Cl)cc1,inactive: 83%
7,Cc1cccc(-c2noc(-c3ccc(N4CCN(C)CC4)c([N+](=O)[O-])c3)n2)c1,active: -3%
8,CCOc1cc(S(=O)(=O)N(CC)CC)c(OCC)cc1-n1cnnn1,inactive: 99%
9,Cc1ccc(Cn2c(C)c(CNCCCc3ccccc3)c(C(=O)O)c2C)cc1,inactive: 115%
10,CCCc1nc(C(C#N)c2ccc(F)cc2)c2nnn(Cc3ccccc3)c2n1 (centres undefined),inactive: 109%
11,CC1CCN(S(=O)(=O)c2ccc3c(c2)CCC(=O)N3CC(=O)Nc2cccc(C#N)c2)CC1,inactive: 70%
12,Cc1ccc2nc(Cl)c(CO)cc2c1,inactive: 111%
13,CCCCNC(=O)CSc1nnc(C)c2c(C)n(-c3ccccc3)nc12,inactive: 70%
14,Cc1ccc(C2=NN(CC(=O)NCCN(CC(C)C)CC(C)C)C(=O)CC2)cc1,inactive: 129%
15,CC(C)NC(=O)C1CCN(c2nc3ccccc3nc2C(F)(F)F)CC1,inactive: 95%
16,Cc1ccc(-c2noc(CNC(=O)c3ccccc3)n2)cc1,inactive: 83%
17,CCOC(=O)C1Cc2ccccc2CN1 (centres undefined),inactive: 100%
18,CCC1CN(C(=O)N2CCC(C(=O)NCc3ccccc3C)CC2)c2ccccc2O1 (centres undefined),inactive: 87%
19,Cc1ccc(-c2cc3c(n2-c2ccc(C)cc2)CC(C)(C)CC3=O)cc1,inactive: 69%

# Source: PubChem BioAssay AID463173 (ICCB-Longwood Screening Facility, Harvard Medical School, 2010)
